We go through 85 compounds from ChEMBL document CHEMBL4888484, “Replenishing the malaria drug discovery pipeline: Screening and hit evaluation of the MMV Hit Generation Library 1 (HGL1) against asexual blood stage Plasmodium falciparum ,using a nano luciferase reporter read-out” (2022).

Molecules are shown by their SMILES. The whole screen tested about 150,000 compounds, of which about 540 (0.36%) showed an effect of 50% or more. This is one part of the list.

The assay relates to Plasmodium falciparum. Description: Primary screen in NF54 nanoGlo assay, in single point, at 2uM, 72h; a lower Z score goes with more inhibition. It is filed as functional, Erythrocyte. To be noted: timepoint 72 hour.
Regarding `CN(CCc1ccccn1)c1ccnc(C(=O)N2CCOCC2)c1`, the % Inhibition – broadly, the drop in the measured response relative to a control, in per cent – is reported as 0% and the Z score is listed as -0.05.
On to `O=C1N(CC2CC2)CCC[C@@]12CCN(Cc1ccc(Cl)s1)C2`, for which the “% Inhibition” value worked out at 1% and the Z score is recorded as -0.18.
In the same order, the values of `CC(C)CNC(=O)[C@@H]1C[C@H](COc2cccc(C(F)(F)F)c2)CN(Cc2ccncc2)C1` are 0% and -0.06.
As to `CC(C)[C@H]1CCCN(C(=O)CCC(C)(C)C)CC1`, the “% Inhibition” value is reported as 1% and the Z score is -0.13.
The like results for `COc1ccc2nc(CN3CCC[C@H](c4nccs4)C3)sc2c1` were, in that order, -11% and 1.1.
The like results for `CC(=O)N1CCC[C@H]1C(=O)Nc1cccc2oc(C(F)(F)F)nc12` were, in that order, -9% and 1.2.
On to `COC(=O)[C@@H]1CN(S(=O)(=O)C2CC2)C[C@H]1c1ccccc1`, for which the “% Inhibition” value was -9% and the Z score was 1.
In the same order, the values of `Cc1ccc(NC(=O)N2CCN(c3nc(-c4ccc(C(F)(F)F)cc4)nc(C)c3C(C)C)CC2)c(C)c1` are -7% and 0.69.
The like results for `O=C(NCCN1c2ccccc2N(C2CC2)S1(=O)=O)c1ccco1` were, in that order, -20% and 3.88.
In the same order, the values of `COCCc1nncn1C1CCN(C(=O)c2cc(C)cc(C)c2)CC1` are -8% and 1.35.
Take `Cc1ccn(CC(=O)N2C[C@@H]3CN(C(=O)c4ccccc4)C[C@]3(C(=O)N(C)C)C2)n1`: the “% Inhibition” value is listed as -23% and the Z score is given as 3.12.
For `Cc1nc2ccccc2c(=O)n1NC(=O)c1c(O)nc2ccccc2c1O`, the “% Inhibition” value is listed as 4% and the Z score is listed as -0.46.
Consider `C[C@H]1CCCN(C(=O)C2=Cc3ccccc3OC2)C1`, for which the “% Inhibition” value is given as -3% and the Z score is 0.45.
Consider `COCc1noc(CNC(=O)COc2cccnc2)n1`, for which the “% Inhibition” value is on record as -6% and the Z score is reported as 1.32.
Regarding `CC(=O)N1CCCN(C(=O)N[C@@H](C)c2nc(-c3ccccn3)no2)CC1`, the “% Inhibition” value was -6% and the Z score is given as 0.95.
In the same order, the values of `Cc1ccc(-c2nccn2C[C@@]2(C)CCCO2)o1` are 4% and -0.72.
The like results for `O=C(NC1(c2cccs2)CCCC1)c1ccccc1Cl` were, in that order, 8% and -1.1.
Regarding `Cc1cc(NC(=O)CCN2CC(C)CC(C)C2)no1` (stereo not given), the “% Inhibition” value is given as -2% and the Z score is recorded as 0.21.
As to `C[C@H]1CCN(CC(=O)NCCc2cccc3cccnc23)C1`, the “% Inhibition” value was -9% and the Z score is 1.8.
`CCCS(=O)(=O)N1CC[C@H](c2noc(-c3ccncc3)n2)C1`: the “% Inhibition” value is recorded as -2% and the Z score came out at 0.3.
The like results for `CCCN(C(=O)c1cc(C)c(CC)o1)c1cccnc1` were, in that order, -1% and 0.12.
The like results for `Nc1ccc(S(=O)(=O)N2CC3(CCCO3)C2C2CC2)cc1` (stereo not given) were, in that order, -10% and 1.
On to `O=C(NC1CCCCC1)NC1CCC(O)CC1` (stereo not given), for which the “% Inhibition” value is -6% and the Z score is 0.6.
`O=C(O)C[C@H]1CCCN1C(=O)c1cc2c(s1)CCC2`: the “% Inhibition” value was -1% and the Z score worked out at 0.27.
The like results for `CC(C)OCCCC(=O)N1CCC[C@H]1c1ccncc1` were, in that order, -15% and 2.77.
Consider `CC1(C)CN(C(=O)[C@@H]2CCCN2C(=O)c2ccccc2O)CC2(CCCC2)O1`, for which the “% Inhibition” value is reported as -8% and the Z score was 0.91.
Regarding `COCc1nc(CCNC(=O)[C@H]2CCCN(S(=O)(=O)N3CCCC3)C2)no1`, the “% Inhibition” value was -1% and the Z score was 0.12.
Take `Cc1cc(C(=O)N2CCC(C)(c3noc(-c4ccncc4)n3)CC2)c(C)n1Cc1ccc(F)cc1`: the “% Inhibition” value is recorded as -19% and the Z score is on record as 2.52.
In the same order, the values of `COc1cccc(NC(=O)C(F)(F)F)c1` are -4% and 0.51.
Take `Nc1ncccc1CN1CCC(Oc2ccc3ccccc3c2)(C(=O)O)CC1`: the “% Inhibition” value is reported as -5% and the Z score is on record as 0.61.
The like results for `COc1c(C)cc(-c2cncc(C(=O)N3CCN(C)CC3)n2)cc1C` were, in that order, -5% and 0.92.
In the same order, the values of `N[C@@H](c1ccccc1)c1ccc2c(c1)CCCO2` are -7% and 1.32.
In the same order, the values of `Cc1nc(N2CCC[C@H](C(=O)N3CCCCCC3)C2)c2cc[nH]c2n1` are -2% and 0.28.
Take `CN1C(=O)N(c2cc(Cl)cc(Cl)c2)C(=O)[C@]12CN(c1ccc(C(=O)O)cn1)C[C@H]2c1ccc(C#N)cc1`: the “% Inhibition” value is on record as 35% and the Z score is reported as -1.5.
The like results for `CCOCC1CC2(CC(C)(c3csc(N)n3)OC2=O)C(=O)O1` (stereo not given) were, in that order, -17% and 1.54.
The like results for `O=C(NC1CC1)c1cccc(NC(=O)[C@H]2CCS(=O)(=O)C2)c1` were, in that order, 14% and -1.65.
Turning to `CON(C)C(=O)c1cccc(S(C)(=O)=O)c1`, the “% Inhibition” value is given as 3% and the Z score was -0.32.
As to `Cc1cc(NC(=O)c2nn(C)c(=O)c3ccccc23)no1`, the “% Inhibition” value is -10% and the Z score was found to be 1.92.
As for `Fc1ccc(-n2nc(Cn3ccnn3)c3c2CCC3)cc1`, the “% Inhibition” value is on record as -6% and the Z score came out at 1.21.
Turning to `O=C(NC1CCCCC1)C1=NCCCN1`, the “% Inhibition” value is 0% and the Z score amounted to 0.04.
In the same order, the values of `O=C1c2ccccc2C(=O)N1C[C@H]1CCCN1c1ccccc1` are -18% and 2.09.
With `C[C@H](CC(=O)Nc1ncc(Cl)cc1Cl)CC(C)(C)C`, the “% Inhibition” value is -4% and the Z score was 0.51.
Take `C[C@H]1Cc2ccc(CNS(=O)(=O)Cc3ccccc3)cc2N1C(=O)c1ccccc1`: the “% Inhibition” value was -2% and the Z score is recorded as 0.25.
`COc1ccccc1CNC(=O)CC1=Nc2ccccc2S(=O)(=O)N1`: the “% Inhibition” value is given as -13% and the Z score is given as 2.25.
Regarding `COCC(NC(C)c1nn(C)cc1O)c1ccccc1` (stereo not given), the “% Inhibition” value was determined as 0% and the Z score is reported as 0.05.
For `COC(=O)NCCC(=O)N[C@@H](C)c1cccc(Cl)c1Cl`, the “% Inhibition” value is listed as 9% and the Z score is -1.29.
In the same order, the values of `C[C@@H](C(=O)Nc1ncccn1)N1CCN(c2cnccn2)CC1` are -4% and 0.46.
In the same order, the values of `Cc1cnc(C)c(-c2cc(O)c3c(c2)CN(Cc2snnc2C)CCO3)n1` are -13% and 1.94.
In the same order, the values of `O=C(c1nccc2ccccc12)N1CC(Cn2cncn2)C1` are -9% and 1.17.
For `CN(C)C(N)=NCc1cccc(C(F)F)c1`, the “% Inhibition” value amounted to 6% and the Z score was -1.15.
On to `O=C(NCCN(CCOCCO)C(=O)OCC1CC1)OCC1CC1`, for which the “% Inhibition” value is listed as -5% and the Z score amounted to 0.92.
With `O=C(NCCc1cn[nH]c1)[C@@H]1CCCN1C(=O)C1CCCCC1`, the “% Inhibition” value is given as -18% and the Z score came out at 2.62.
The like results for `CC(C)(CO)CCNC(=O)[C@@H]1C[C@H]1c1ccc(Cl)c(Cl)c1` were, in that order, -9% and 1.16.
The like results for `COCCN(Cc1ccc(C(O)(c2cccc(F)c2)c2cccc(F)c2)o1)Cc1ccccc1C` were, in that order, -6% and 0.73.
`CC(=O)NCc1ccc(C(=O)N2CCCC[C@@H]2Cn2cc(C)cn2)o1`: the “% Inhibition” value is recorded as 6% and the Z score is reported as -0.81.
On to `CCS(=O)(=O)N1CCN(C(=O)Nc2ccc3c(c2)CCC3)CC1`, for which the “% Inhibition” value was -10% and the Z score is on record as 0.89.
The like results for `O=C([C@@H]1CNCCN1C(=O)c1csc(-c2cccs2)n1)N1CCCC1` were, in that order, -13% and 1.59.
The like results for `CCOc1ccc(S(=O)(=O)Cc2c(C)noc2C)cc1` were, in that order, -4% and 0.69.
Take `O=C(NC[C@H](O)c1c(Cl)cccc1Cl)c1cnc[nH]1`: the “% Inhibition” value is given as -5% and the Z score is 1.03.
Regarding `COCc1cc(NCCCn2nc(C)cc2C)n2nccc2n1`, the “% Inhibition” value is listed as -3% and the Z score is listed as 0.51.
`Cc1ccccc1C1c2[nH]c3ccccc3c2C[C@H]2C(=O)N(c3ccccc3C(=O)NCc3ccc(Cl)cc3)C(=O)N12` (stereo not given in full): the “% Inhibition” value is -17% and the Z score was 2.52.
Consider `CCCCS(=O)(=O)N(C)CCN1CCCC1`, for which the “% Inhibition” value came out at 9% and the Z score is -0.95.
In the same order, the values of `COc1ccc(C)cc1-n1c(Cc2c[nH]c3ccccc23)n[nH]c1=O` are -14% and 2.2.
Turning to `COCCn1c(N)c(N(Cc2ccccc2)C(=O)COc2ccccc2F)c(=O)[nH]c1=O`, the “% Inhibition” value is -13% and the Z score was 1.3.
The like results for `C=C(C)COc1cccc(CNC[C@H](C)Oc2cccnc2)c1` were, in that order, -2% and 0.37.
Regarding `Cc1ccc(-c2ccn(CC(=O)Nc3ccnn3C)n2)s1`, the “% Inhibition” value was -12% and the Z score came out at 1.68.
In the case of `CC1CCC(N(C(=O)C2CCC(C(N)=O)CC2)C2CC2)CC1` (stereo not given), the “% Inhibition” value is -8% and the Z score came out at 0.69.
The like results for `COCCN(Cc1c(-c2ccccc2)nn(-c2ccc(F)cc2)c1N(C)C)C(=O)c1cccs1` were, in that order, -11% and 1.04.
The like results for `CCOC(=O)N1CCc2c(sc(NC(=O)CN3C(=O)CCC3=O)c2C(N)=O)C1` were, in that order, -4% and 0.74.
In the same order, the values of `NS(=O)(=O)c1ccc(CCNC(=O)[C@@H]2CCCN2S(=O)(=O)c2ccccc2F)cc1` are -13% and 1.71.
Regarding `CC1CN(C(=O)CCNC(=O)CCOc2ccccc2Cl)CC(C)O1` (stereo not given), the “% Inhibition” value is listed as -21% and the Z score is 2.43.
The like results for `O=C(Cn1cc(-c2ccccc2)c2ncn(C3CC3)c(=O)c21)NCc1ccc(F)cc1` were, in that order, -2% and 0.31.
As to `Cc1cc(F)c2nc(O)cc(C(=O)Nc3ncc(C)[nH]3)c2c1`, the “% Inhibition” value is recorded as -11% and the Z score came to 1.19.
In the same order, the values of `Cc1ccc(F)c(NS(=O)(=O)c2cc(-c3ccn[nH]3)oc2C)c1` are 2% and -0.25.
Regarding `CC(=O)N1CCC[C@H](C(=O)OCC(=O)N2CCCCCC2)C1`, the “% Inhibition” value was -2% and the Z score was 0.25.
With `CCCNC(=O)N1CCc2[nH]c(-c3ccccc3)nc2C1`, the “% Inhibition” value was -17% and the Z score was determined as 2.56.
The like results for `O=C(c1cc(F)cc(F)c1)N1CC[C@H]2[C@H](CCC(=O)N2CCCO)C1` were, in that order, -15% and 1.67.
Regarding `CCC(CC)(CN)NS(=O)(=O)c1ccccc1Br`, the “% Inhibition” value turned out to be 24% and the Z score is listed as -2.74.
The like results for `CCN(CC)c1ccc(NC(=O)COc2ccc(Cl)cc2)cn1` were, in that order, 13% and -1.49.
The like results for `CCCN[C@@H](C)C(=O)N1CCC(N2CCc3cc(F)ccc32)CC1` were, in that order, -14% and 1.26.
Regarding `c1c(OCC2CCN(C[C@H]3CCCCO3)CC2)nnc2c1CCCC2`, the “% Inhibition” value is -16% and the Z score is on record as 1.81.
The like results for `Cc1nc[nH]c1CN[C@H]1CC(C)(C)Cc2nc(C(C)(C)C)ncc21` were, in that order, -5% and 0.71.
Take `COc1cccc2sc(N(C)CC(=O)NCC(F)(F)F)nc12`: the “% Inhibition” value was -4% and the Z score amounted to 0.84.
In the same order, the values of `CCNC(=O)N1CCC[C@@H]1CS(=O)(=O)c1ccccc1` are -6% and 1.1.
On to `CS(=O)(=O)CC1(CC(=O)Nc2n[nH]c3cccc(F)c23)CC1`, for which the “% Inhibition” value is -9% and the Z score is 1.54.
